Binding data for 2 molecules are collected here from article PMC7939435.

These are yes or no findings as the source states them, for the method shown. Binding seen in cells or lysates may run through a third protein. Some results given as binding are weak or reduced against the parent protein; the word gives no strength. Where a sequence is shown, tags or fusion partners need not be part of it.

Test [1] concerns the target GST-p6 (HIV-1) (UniProt P04591). As to the kind of experiment: pull-down; GST-tagged Gag fragment on GSH-Sepharose incubated overnight with yeast extract, binding buffer with 400 mM NaCl, 1 mg/ml BSA; only the target purified.
The next test has as its target GST-MA (HIV-1) (UniProt P04591). Description: pull-down; GST-tagged Gag fragment on GSH-Sepharose incubated overnight with yeast extract, binding buffer with 150 mM NaCl, 1 mg/ml BSA; also with extract of Δbro1 or Δvps23 cells (Fig. S12 D, E); only the target purified.
The target in test [2] is GST-p6 (HIV-1) (UniProt P04591). Described as above.
Test [3] concerns the target CA-SP1-NC-SP2-GFP (expressed in yeast) (HIV-1) (UniProt P04591). As to the kind of experiment: co-IP; GFP-tagged Gag version immunoprecipitated from yeast extract with polyclonal anti-GFP and Protein A-Sepharose, 50 mM Tris pH 7.5, 400 mM NaCl, 1% Triton X-100, 10% glycerol, 4 °C overnight; Bro1 or Vps23 detected by anti-HA or anti-Myc blot; also done with Δbro1 or Δvps23 cells (Fig. S12 A-C).

Test [4] addresses Gag(Δp6)-GFP (expressed in yeast) (HIV-1) (UniProt P04591). The test is described as above.
Test [5] has as its target MA-GFP (expressed in yeast) (HIV-1) (UniProt P04591). The test is described as above.
In test [6] the target is SP1-NC-SP2-GFP (expressed in yeast) (HIV-1) (UniProt P04591). Described as above.

B1: Bro1 (genomically epitope-tagged) (protein, UniProt P48582 1-844)
chain: MKPYLFDLKLKDTEKLDWKKGLSSYLKKSYGSSQWRTFYDEKATSELDHLRNNANGELAPSSLSEQNLKYYSFLEHLYFRLGSKGSRLKMDFTWYDAEYSSAQKGLKYTQHTLAFEKSCTLFNIAVIFTQIARENINEDYKNSIANLTKAFSCFEYLSENFLNSPSVDLQSENTRFLANICHAEAQELFVLKLLNDQISSKQYTLISKLSRATCNLFQKCHDFMKEIDDDVAIYGEPKWKTTVTCKLHFYKSLSAYYHGLHLEEENRVGEAIAFLDFSMQQLISSLPFKTWLVEFIDFDGFKETLEKKQKELIKDNDFIYHESVPAVVQVDSIKALDAIKSPTWEKILEPYMQDVANKCDSLYRGIIPLDVYEKESIYSEEKATLLRKQVEETETANLEYSSFIEFTNLPRLLSDLEKQFSDGNIFSNTDTQGQLMRDQIQTWCKFIQTNEFRDIEEQMNKIVFKRKQILEILSALPNDQKENVTKLKSSLVAASNSDEKLFACVKPHIVEINLLNDNGKIWKKFDEFNRNTPPQPSLLDIDDTKNDKILELLKQVKGHAEDLRTLKEERSRNLSELRDEINNDDITKLLIINKGKSDVELKDLFEVELEKFEPLSTRIEATIYKQSSMIDDIKAKLDEIFHLSNFKDKSSGEEKFLEDRKNFFDKLQEAVKSFSIFASDLPKGIEFYDSLFNMSRDLAERVRVAKQTEDSTANSPAPPLPPLDSKASVVGGPPLLPQKSAAFQSLSRQGLNLGDQFQNLKISAGSDLPQGPGIPPRTYEASPYAATPTMAAPPVPPKQSQEDMYDLRRRKAVENEERELQENPTSFYNRPSVFDENMYSKYSS
As to B1, the binding entry in the test with GST-p6 (HIV-1) [1] was “binds weakly”; in the test with GST-MA (HIV-1), “binds”; with GST-p6 (HIV-1) [2] it was “no binding (condition: with 150 mM NaCl)”; in test [3], “binds”; in test [4] it was “binds”; in test [5] it was “binds”. Also, in test [6], the binding entry is on record as “no binding”.

B2: Vps23 (genomically epitope-tagged) (protein, UniProt P25604 1-385)
chain: MSANGKISVPEAVVNWLFKVIQPIYNDGRTTFHDSLALLDNFHSLRPRTRVFTHSDGTPQLLLSIYGTISTGEDGSSPHSIPVIMWVPSMYPVKPPFISINLENFDMNTISSSLPIQEYIDSNGWIALPILHCWDPAAMNLIMVVQELMSLLHEPPQDQAPSLPPKPNTQLQQEQNTPPLPPKPKSPHLKPPLPPPPPPQPASNALDLMDMDNTDISPTNHHEMLQNLQTVVNELYREDVDYVADKILTRQTVMQESIARFHEIIAIDKNHLRAVEQAIEQTMHSLNAQIDVLTANRAKVQQFSSTSHVDDEDVNSIAVAKTDGLNQLYNLVAQDYALTDTIECLSRMLHRGTIPLDTFVKQGRELARQQFLVRWHIQRITSPLS
B2: the binding entry with GST-p6 (HIV-1) [1] is “no binding”; with GST-MA (HIV-1), “binds”; in test [3] it was “binds”; in test [4] it was “binds”; in test [5] it was “binds”.
